Tests used:
[1] = tested on: ccRCC patient derived xenograft; test: patient derived xenograft (PDX) model for ccRCC; assay type: in vivo, mice; settings: in combination with pazopanib
Procedure: AVB-S6-500 was also evaluated in a patient derived xenograft (PDX) model for ccRCC, where mice were treated with vehicle, AVB-S6-500 and pazopanib, or a combination of AVB-S6-500 and pazopanib.

GAS6 [2] = target: T1, GAS6 (Homo sapiens, UniProt Q14393); test: binding affinity to GAS6
T1 sequence (Q14393 31-678): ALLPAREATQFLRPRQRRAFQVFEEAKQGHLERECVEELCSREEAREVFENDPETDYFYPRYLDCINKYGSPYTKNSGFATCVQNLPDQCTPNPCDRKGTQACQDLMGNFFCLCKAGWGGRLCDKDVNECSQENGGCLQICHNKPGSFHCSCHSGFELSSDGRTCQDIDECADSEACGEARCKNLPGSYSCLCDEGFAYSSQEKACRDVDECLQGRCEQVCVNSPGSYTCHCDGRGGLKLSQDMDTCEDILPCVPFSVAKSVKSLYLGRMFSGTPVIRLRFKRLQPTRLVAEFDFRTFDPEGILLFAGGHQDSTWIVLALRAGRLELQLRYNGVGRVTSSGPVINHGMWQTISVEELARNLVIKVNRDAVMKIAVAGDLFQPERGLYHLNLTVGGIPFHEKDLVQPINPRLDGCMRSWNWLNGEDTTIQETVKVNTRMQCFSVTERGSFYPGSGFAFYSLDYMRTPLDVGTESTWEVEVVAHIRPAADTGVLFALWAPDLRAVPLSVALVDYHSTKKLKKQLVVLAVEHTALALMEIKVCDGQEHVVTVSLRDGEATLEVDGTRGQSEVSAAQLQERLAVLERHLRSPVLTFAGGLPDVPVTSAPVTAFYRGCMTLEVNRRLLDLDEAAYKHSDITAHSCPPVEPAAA

[3] = Phase 1 Single Ascending Dose and Repeat Dose study in healthy volunteers; assay type: in vivo
Procedure: The present inventors previously evaluated AVB-S6-500 in a single-blind, placebo-controlled, first-in-human, Phase 1 Single Ascending Dose (SAD) and Repeat Dose (RD) study in healthy volunteers. Single dose cohorts of 1, 2.5, 5, and 10 mg/kg were evaluated as well as one RD cohort dosed with 5 mg/kg once weekly for four weeks. Subjects were treated with either Placebo (normal saline) or AVB-S6-500 given as i.v. infusions over 60 minutes.

SN12L1 metastatic ccRCC = SN12L1 metastatic ccRCC model; assay type: in vivo; settings: 5 mg/kg i.p. twice weekly for 8 weeks
Procedure: The present inventors evaluated AVB-S6-500 in a SN12L1 metastatic ccRCC model. Following injection of tumor cells, mice were divided into two treatments groups: control and 5 mg/kg intraperitoneal (i.p.) AVB-S6-500. Treatments began 7 days post inoculation and occurred twice weekly for 8 weeks.

highly metastatic cells = test: AXL signaled invasion and migration in vitro; assay type: cell-based
[4] = Phase 1b in platinum-resistant, recurrent ovarian cancer patients; assay type: in vivo, human
Procedure: The present inventors are currently evaluating AVB-S6-500 in the Phase 1b portion of a P1b/2 randomized, controlled study in combination with either pegylated liposomal doxorubicin (PLD) or paclitaxel in patients with platinum-resistant, recurrent ovarian cancer. […] Higher dose levels of AVB-S6-500 (15 mg/kg and 20 mg/kg) are being enrolled (in combination with paclitaxel and PLD) in Phase 1b expansion cohorts to determine the optimal recommended Phase 2 dose.

metastatic disease = test: preclinical models of aggressive human cancers; assay type: in vivo
[5] = PK and toxicokinetics following single and repeat dosing; assay type: in vivo, cynomolgus monkey
Procedure: (§1) The present inventors have previously evaluated PK and toxicokinetics (TK) of AVB-S6-500 and concentrations of GAS6 (PD) in mice (intraperitoneal and i.v. routes) and monkeys (i.v. route) following single and repeat dosing. […] At low doses in the cynomolgus monkey (below 5 mg/kg), clearance is high and half-life is short, but at doses above 5 mg/kg, clearance is lower, half-life is longer, and volume of distribution is larger. Using the TMDD model (Dirks, N., Clinical Pharmacokinetics, 633-659, 2010), the human dose estimated to be efficacious may range from 1 mg/kg (to ensure GAS6 levels remain at least 90% less than baseline) to 20 mg/kg (to ensure 99% abrogation of GAS6 and allowing for a three-fold increase in GAS6 levels in cancer patients relative to normal levels).

GAS6 [6] = target: T1, GAS6; test: human efficacious dose estimated with TMDD model; design: allowing for a three-fold increase in GAS6 levels in cancer patients relative to normal levels
Procedure: as §1

[7] = 3-month GLP cynomolgus monkey study; assay type: in vivo
From the text: The non-dose dependent clinical pathology changes seen are consistent with an immune response in monkeys to the human AVB-S6-500 protein.

[8] = cynomolgus monkey, doses above 5 mg/kg
[9] = cynomolgus monkey, low doses (below 5 mg/kg)

B1: AVB-S6-500: soluble AXL polypeptide fusion protein comprising an Fc domain, a linker, lacks a functional FN domain, amino acid sequence SEQ ID NO: 2 (protein)
chain: EESPFVSNPGNITGARGLTGTLRCQLQVQGEPPEVHWLRDGQILELVDSTQTQVPLGEDEQGDWIVASQLRITSLQLSDTGQYQCLVFLGHQTFVSQPGYVRLEGLPYFLEEPEDRTVAANTPFNLSCQAQGPPEPVDLLWLQDAVPLATAPGHGPQRSLHVPGLNKTSSFSCEAHNAKGVTTSRTATITVLPQQGGGGS[human IgG1 Fc not printed]
modifications: soluble AXL polypeptide-Fc fusion
With B1 the “specific growth rate of tumors” value [1] was “significantly reduced”, the weight of tumors [1] was “significantly reduced” and the “apparent affinity to GAS6” value (GAS6 [2]) was 93-324 femtomolar. The “higher affinity to GAS6 than wild-type (WT) AXL” value (GAS6 [2]; relative to wild-type AXL) was “approximately 200 fold”, the dose-related adverse events ([3]; healthy volunteers, all doses) was “no dose-related adverse events” and the serious adverse events ([3]; healthy volunteers, all doses) was “no serious adverse events”. For the same molecule, the maximum tolerated dose ([3]; healthy volunteers, up to 10 mg/kg) was “not reached”, the tolerability ([3]; single 1, 2.5, 5, 10 mg/kg, 5 mg/kg weekly for four weeks, i.v. infusion over 60 minutes) was “well tolerated at all doses” and the “toxicity as assessed by bodyweight and clinical observation” value (SN12L1 metastatic ccRCC) was “no overt toxicity”. For the same molecule, the lung tumor burden (SN12L1 metastatic ccRCC; relative to control group) was “significant reduction”, the “AXL signaled invasion and migration” value (highly metastatic cells) was “dramatically reducing AXL signaled invasion and migration” and the dose limiting toxicities ([4]; 10 mg/kg q2w with PLD or paclitaxel, 40 patients) was “no dose limiting toxicities”. The PK ([4]; platinum-resistant ovarian cancer patients) was “consistent with target-mediated drug disposition (TMDD)”, the exposure-response relationship ([4]; preliminary data from Phase 1b) was “potential exposure-response relationship” and the metastatic disease (metastatic disease) was “inhibiting metastatic disease”. For the same molecule, the clearance [5, 8] was “lower”, the half-life [5, 8] was “longer” and the volume of distribution [5, 8] was “larger”. For the same molecule, the clearance [5, 9] was “high”, the half-life [5, 9] was “short” and the PK profile ([5]; mice (i.p. and i.v.) and monkeys (i.v.), single and repeat dosing) was “compatible with target-mediated drug disposition (TMDD)”. The “human dose estimated to be efficacious (upper end)” value (GAS6 [6]; to ensure 99% abrogation of GAS6, allowing three-fold increase in GAS6 in cancer patients) was 20 mg/kg, the “human dose estimated to be efficacious (lower end)” value (GAS6 [6]; to ensure GAS6 levels remain at least 90% less than baseline) was 1 mg/kg and the mortalities ([7]; doses up to 150 mg/kg/dose) was “no mortalities”. For the same molecule, the NOAEL ([7]; once weekly 30-minute i.v. infusion, 3 months) was “at least 150 mg/kg/dose”.
